# Laboratory results: the supplement of paper PMC12632987
# Whole data set: some 4,500 sequences, median “median log2 fold change of GCK-ALFA target abundance (FLAG IP / Myc IP barcode read proportion)” near 0.078, cut for the lowest 2% near -0.6. Some of the results follow.
# B1: GBRAP_160_4704 (protein)
# chain: SATAEKLKKYVEEEFKKAKELIKGETKEQKAIILEGTIGEILMELAEDENATDELEEEVDKIGDELVEKILADENITEEELKKLIEEAVEKMKEAIDKHL
# B2: GBRAP_96_7104 (protein)
# chain: MLEEAEELVKELIEALDKDEEKAKELAKKLLEFPVEVVTEALVKVVKDPEDARKLAEVLLSLKDEKAEEVLLEAAEKSDSEISKAIIEAMEEFEKKEEAE
# B3: GBRAP_160_4389 (protein)
# chain: SSGFKKLKKSVKDILEEAKKLIEGESKEERKVIVRVALGEIRMEVFSNDEVSDEGEEKIDKILDEGEKKIEEAIEKGLEEVKKKIEELEKKLLEEIEKLE
# B4: GBRAP_166_4958 (protein)
# chain: SKEDVIKETKKKIEELAEKMKDANPEEQLELQIEIAEAIQEAKEKGLSKEEILELIELALKLVKEAGGNVEQFLGVISMFVDLDEEELDKIEEIAKKVKE
# B5: GBRAP_14_3812 (protein)
# chain: KEELIKEIKKILEELKKELVEELGLDPEKVKALVEEAEEKIEEAILTEEDPEEKVEEIFDELKAKVAALAAALGADVAAAARALVTDAEHEVLELIEKKK
# B6: GBRAP_78_6711 (protein)
# chain: EIEELIDKAIELLNKAARLALKLPEERSNEILDLLVDAITLLMETLEEGMEQEEKIKKLEEAIALVEKALKLLKPEDKELRELLEKAKELLEKALKLAKK
# B7: GBRAP_125_3023 (protein)
# chain: SEEELVENLKLIARALGFSEGDVEELGENARKYGIKGALIALFLAEGLEEEAELAEKLTEEEVKEVVKEVAEYLKKHPDATPEEVKEKIKEVLEKAVKKS
# B8: GBRAP_166_4900 (protein)
# chain: MVEEAIKRIEELAADTIARIADLSDEELLERFVEMAEIAEEAGPTPELRAALAAAFARVLAAAEAAGKDPETVRNLILAAVGDNEKLLDAVEAALDAAAA
# B9: GBRAP_160_4124 (protein)
# chain: MEKEKKTLLDNAEDVEETIEIMEDLSPEEARTLAIVTLGQILLDNDELDDKFPEIDKLSEEAIEELRETAKTDPEKLKEVSLEKLKEIKELLKKKAKELE
# B10: GBRAP_39_5640 (protein)
# chain: SEEEEAEETYSYLEALGAKLLVDEKISLDELLARTLAYARARFADDPELLALIDELEALAAAGDEMDKLALVGALSLAERGESRETIREHLELLIRYLKS
# B11: GBRAP_160_4032 (protein)
# chain: KEKIEKLKEYSKELFAEAKEMIEGLSAEQRANLFDVTMGEIIMEAVELGIDNEDLEDHIDELGDKGRATILANPDLTLAEVKALLDAAEKEVLKKIEEIK
# B12: GBRAP_160_4208 (protein)
# chain: SELIEKIIEELEEATEEVIAALPEVSVEEAANLADVEYGSVLMEAVEAGLENDEILDTIAEAGDRVVAALRALADASDEERRARLRAITEEAKKKIKEIA
# B13: GBRAP_96_7085 (protein)
# chain: VSPELLALVRAVREAARTDRERLLALLRELSEYSEDEIEAAFKEVEFTPEEVAAIAEAARELGEEKAEKLLLALAEAAVEKGDTEQVRVVIEAAERLERE
# B14: GBRAP_128_3418 (protein)
# chain: SMEEKVARVKELLEKMLTASPEEQKKIADEIMELMKEADLETAEAMAEVVLKMLPKFTAEQLDILADAARKHLSEFTPEKQNLVAEVEVEALNEAEELEE
# B15: GBRAP_160_4436 (protein)
# chain: SEKVEEAKKKIKEIVEEAAKMMEGESAEQRIVVVRVAEGEILLELDELGLLTDEIDKVIEEEFKKIIDYIKANPNISQEELKKLLEEAEKKIIEELDKKF
# B16: GBRAP_52_6046 (protein)
# chain: MEEEARKLAKELLELVLEGKEEEARKLAREIAETKNEEEILKIAEELAKLVLEGDKETAEAGIKAAEIMAEELEKAGRDEGLADLILATVYGAAYKRLQK
# B17: GBRAP_128_3570 (protein)
# chain: SSEETLAKAEELIQKIIESDLETARKYAEELVALMASSDPETREKITEMVLKALPKLSVEKLEILADVFREKRPSLDPFTANLLADVQVEALNEAEEKEE
# B18: GBRAP_186_5379 (protein)
# chain: EEELEEREDEIIDELEAEGYTVIVTYLEGLSLEETKEAMKRDAEAVAALSKETGKKWALVVVVITKKEDVEEIEEFAKELNEEYLKKTGVVVRAAVGSSD
# B19: GBRAP_166_4959 (protein)
# chain: SLEEVRARLEAALAAFEAEGASLSLEERRDRLVEIAELLGEAARAGLPREELLEAAVRLLLLARAAGLSPAFVEAALVNIAGLPVELVDEALARAEALAA
# Target: GABARAP, O95166
# Sequence (O95166 whole entry, the tested form may be a part): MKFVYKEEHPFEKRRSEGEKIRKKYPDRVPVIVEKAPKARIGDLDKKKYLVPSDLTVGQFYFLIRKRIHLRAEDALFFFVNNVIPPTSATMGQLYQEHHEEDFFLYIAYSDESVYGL
# Assay: median log2 fold change of GCK-ALFA target abundance (FLAG IP / Myc IP barcode read proportion) (log2 ratio); each designed protein is fused to an ALFA-tag nanobody in HEK293 cells to bring the named protein to FLAG-tagged glucokinase (GCK); Myc marks an untargeted standard; higher = target protein stabilised (more abundant)
# Details: target protein: 3xFLAG-MCP-GCK-ALFA reporter; HEK293 landing pad (RPLP)
# Procedure, shortened: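 The readout is target abundance, the per-binder median log2 ratio of FLAG to Myc barcode read proportions. It came from HEK293 landing-pad cells carrying a recombined ALFA-nanobody-fused binder library, induced with 2 μg mL^−1 doxycycline and transfected with a plasmid for a FLAG-tagged target and a Myc-tagged standard. After 48 h, lysates were immunoprecipitated with anti-FLAG and anti-Myc, and circular RNA barcodes were reverse transcribed, amplified and sequenced. Each barcode needed a proportion of at least 10^−7 in both replicates and each binder at least 3 barcodes per replicate, a pseudocount of 10^−6 was added, and the replicates were pooled.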
row,Binder,median log2 fold change
1,B1,0.0257
2,B2,0.23
3,B3,-0.0235
4,B4,0.272
5,B5,0.358
6,B6,0.169
7,B7,0.178
8,B8,0.184
9,B9,0.065
10,B10,0.0667
11,B11,-0.185
12,B12,-0.199
13,B13,0.229
14,B14,-0.503
15,B15,-0.371
16,B16,-0.00871
17,B17,0.164
18,B18,-0.196
19,B19,0.117
